# Test results published in PubChem BioAssay AID1508642 (National Center for Advancing Translational Sciences (NCATS), 2021).
# Hit rate of the full screen: of about 43,000 compounds, about 200 (0.47%) were called active. About 12% were inconclusive and are not listed. The call rests on the fitted dose curve; in most records, active means well fitted cell-killing curve with a large enough effect; inconclusive means small, poorly fitted or top-dose-only effect, or effect the other way; inactive means flat fitted curve, though single readings scatter. Some of the results follow.
# Experiment: Cell viability qHTS assay in S16 Pmp22-F2sN cells; further: nearly all actives have a fitted effect of over 65% in size
# Conditions: S16 Pmp22-F2sN Schwann cells viability, CellTiter-Glo, 24 h; series mostly up to 57.5 µM; activity change, negative = cytotoxicity: at the top concentration
# Method in brief: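 Viability was measured by CellTiter-Glo luminescence (15 min, room temperature). This followed 24 h at 37 °C of compound exposure (23 nL pin transfer) in S16 Pmp22-F2sN Schwann cells, 500-1,000 per well.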
# On the % scale 0 is the no-effect control and ±100 the full control effect.
row,SMILES,"activity change, negative = cytotoxicity"
1,CCc1nnc(SC(CC)C(=O)Nc2cc(C)ccc2C)c2cc3occc3n12 (stereo unspecified),inactive: -6.11%
2,O=C(NCc1ccc(Cl)cc1)c1ccc(NC(=O)N2CC3CCCN3c3ccccc32)cc1 (stereo unspecified),inactive: 1.57%
3,Cc1ccc(CNC(=O)CCS(=O)(=O)c2cc3c(cc2Cl)NC(=O)CO3)cc1,inactive: 4.04%
4,COc1ccc(N2CCN(CC(O)COc3ccc(C)cc3C)CC2)cc1 (stereo unspecified),inactive: -28.1%
5,CC1=C(c2ccc(C)cc2)S(=O)(=O)NC1=NCCCN1CCN(c2cc(C)ccc2C)CC1,inactive: 2.33%
6,Cc1ccc(Cl)cc1N1CCN(C(=O)CN2C(=O)COc3ccc(S(=O)(=O)N4CCC(C)CC4)cc32)CC1,inactive: 6.21%
7,CC(C)(C)C(=O)NC1(C(F)(F)F)NC(=O)N(c2ccc(F)cc2)C1=O (stereo unspecified),inactive: 10.3%
8,COc1ccc(N2CCN(c3ncnc4c3cnn4-c3ccc(C)c(Cl)c3)CC2)cc1,inactive: 4.11%
9,Cc1nn(C(=O)c2ccccc2)c(C)c1S(=O)(=O)N1CCOCC1,inactive: 8.09%
10,COc1ccc(CNC(=O)c2ccc(-c3nc(CSc4ccc(C)cc4)c(C)o3)cc2)cc1OC,inactive: -0.971%
11,CCC(=O)N1CCc2cc(S(=O)(=O)NC(C(=O)NCc3ccccc3Cl)C(C)C)ccc21 (stereo unspecified),inactive: 2.87%
12,Cc1c(C(=O)NCc2ccccc2Cl)sc2nc(-c3ccc(F)cc3)cn12,inactive: -0.26%
13,O=C(NCc1ccc(F)cc1)c1cc(Sc2ccc(F)cc2F)nc2ccccc12,inactive: -3.3%
14,CCOC(=O)C1CCN(C(=O)Cn2c(-c3cccs3)cc3cc(Cl)ccc32)CC1,inactive: 3.79%
15,Cc1c(CC(=O)N2CCCCC2)c(=O)oc2cc3occ(C(C)(C)C)c3cc12,inactive: 11.5%
16,COc1ccc(-c2cn3cccnc3n2)cc1NC(=O)COc1ccccc1,inactive: 17%
17,CCC1=Nc2cc(C(=O)NCc3ccccc3OC)ccc2Sc2ccc(Cl)cc21,inactive: -18.6%
18,COc1ccc(N2C(=O)CSC23C(=O)N(Cc2ccccc2F)c2ccccc23)cc1Cl (stereo unspecified),inactive: -0.247%
19,Cc1ccc(S(=O)(=O)C2(C(=O)Nc3ccc(C)c(Cl)c3)CC2)cc1,inactive: -1.55%
20,CCC(=O)N1c2ccccc2CC1C(=O)NCCc1ccccc1Cl (stereo unspecified),inactive: -5.81%
21,Cc1ccc(OCC(=O)Nc2ccc(OCc3cc(=O)n4ccsc4n3)cc2)cc1,inactive: -1.74%
22,Cc1cc(C)c2c(n1)SCC(=O)N2CC(=O)Nc1ccc(C)c(C)c1,inactive: 2.05%
23,COCCNc1ncnc2c1cnn2-c1cc(Cl)ccc1C,inactive: 3.84%
24,Cn1nc(C(=O)NCc2cccc(Cl)c2)c2c1-c1ccccc1SC2,inactive: -1.54%

row,SMILES,"activity change, negative = cytotoxicity"
1,CC(C)c1ccc(NC(=O)c2cn(C3CCCCC3)c(=O)c3c2c2ccccc2n3C)cc1,inactive: -3.83%
2,COc1ccc(Nc2nc3c(S(=O)(=O)c4ccccc4)nnn3c3ccc(Cl)cc23)c(OC)c1,inactive: -11.7%
3,Fc1ccc(-c2cc(-c3nc(-c4ccccc4)no3)[nH]n2)cc1,inactive: 0.0218%
4,COc1ccccc1C1=NS(=O)(=O)N(C)C(C(=O)Nc2cc(OC)c(OC)c(OC)c2)=C1,inactive: -26.9%
5,CC(C)Cn1cc(NC(=O)NCc2ccccc2)c2ccccc2c1=O,inactive: -2.15%
6,Cc1ccc2c(c1)c1c(c(=O)n(-c3cccc(Cl)c3)c(=O)n1CC(=O)c1ccc(Cl)cc1)n2C,inactive: 7.67%
7,CCCCn1c(=N)c(S(=O)(=O)c2ccccc2)cc2c(=O)n3cccc(C)c3nc21,inactive: 0.519%
8,Cc1nc2nc(SCC(=O)Nc3cccc(Cl)c3)nn2c(C)c1Cc1ccccc1,inactive: -5.99%
9,Cc1ccccc1NC(=O)N1CCc2cc(S(=O)(=O)N3CCC(C)CC3)ccc21,inactive: 0.856%
10,COc1ccc(-c2nc(C)c(CCNC(=O)c3ccc(F)c(F)c3)s2)cc1,inactive: 10.8%
11,CCCCn1cc(S(=O)(=O)c2ccc(OCC)cc2)c(=O)c2cc(OC)c(OC)cc21,inactive: -5.78%
12,CCc1ccc(-n2nc3ccc(NC(=O)c4cc(Cl)c(OC)c(Cl)c4)cc3n2)cc1,inactive: -1.47%
13,CCOc1ccc(CNC(=O)Cn2nc(C)n3cccc3c2=O)cc1,inactive: -0.604%
14,Cc1ccc(NC(=O)CN(CCc2ccccc2)S(=O)(=O)c2ccccc2)c(C)c1,inactive: 0.848%
15,COC(=O)c1cccc(NC(=O)N(C)CCc2c(C)nn(C)c2C)c1,inactive: 3.61%
16,Cc1ccc(CNC(=O)c2cccc(N3CCCS3(=O)=O)c2)cc1,inactive: 9.5%
17,CN(C(=O)CSc1nc2ccc(NC(=O)c3ccccc3F)cc2s1)c1ccccc1,inactive: -6.68%
18,COCCN1Cc2cccc(C(=O)Nc3ccc(C)c(F)c3)c2C1=O,inactive: -6.83%
19,Cc1cc(C)cc(NC(=O)C(=O)NCC(c2ccc3c(c2)OCO3)N2CCOCC2)c1 (stereo unspecified),inactive: 6.72%
20,Cc1ccc(CNC(=O)Cn2c(=O)n(Cc3ccccc3)c(=O)c3c2c2cc(C)ccc2n3C)cc1,inactive: -1.05%
21,COc1cc(N2C(=O)CSC23C(=O)N(C)c2ccccc23)cc(OC)c1OC (stereo unspecified),inactive: 22.7%
22,CCOc1ccc(N2CC(C)Cn3c2nc2c3c(=O)n(CC(=O)O)c(=O)n2C)cc1 (stereo unspecified),inactive: 18.3%
23,CCNS(=O)(=O)c1cc(-c2nnc(Nc3cccc(C(F)(F)F)c3)c3ccccc23)ccc1C,inactive: 9.28%
24,CCOc1cc(C2C(C(=O)Nc3ccccc3)=C(C)Nc3ncnn32)cc(Br)c1O (stereo unspecified),inactive: 15%

row,SMILES,"activity change, negative = cytotoxicity"
1,Cc1cc2c(cc1S(=O)(=O)N(CCO)Cc1ccccc1)OCC(=O)N2,inactive: 1.07%
2,Cc1ccc(C)c(N2CCN(C(=O)C3CCN(S(=O)(=O)c4ccc5[nH]c(=O)oc5c4)CC3)CC2)c1,inactive: 0.815%
3,CCc1ccc2nc(N3CCN(C(=O)c4ccccc4)CC3)sc2c1,inactive: -28.2%
4,CCc1cccc(CC)c1N(COC)C(=O)Cn1c(CC)nc2ccccc21,inactive: -2.1%
5,Cc1ccc(C)c(NC(=O)CCS(=O)(=O)c2cccc3nsnc23)c1,inactive: 10.6%
6,Cc1ccc(NC(=O)Cn2c(CCC(=O)O)ccc2-c2cccs2)cc1Cl,inactive: 0.914%
7,Oc1c(C(c2ccccc2F)N2CCC3(CC2)OCCO3)sc2nc(-c3ccco3)nn12 (stereo unspecified),inactive: 1.03%
8,CCCCN(C(=O)Nc1ccc(Cl)cc1)C1CCN(C(C)=O)CC1,inactive: -7.36%
9,CC(=O)c1cccc(NC(=O)C2=CC(c3ccc(F)cc3)=NS(=O)(=O)N2C)c1,inactive: 0.566%
10,Cc1cccc(N2CCN(C(=O)CCCn3c(=O)[nH]c4ccsc4c3=O)CC2)c1C,inactive: 2.16%
11,CCCCCCc1c(C)c2c(cc(C)c3c(C)c(C)oc32)oc1=O,inactive: -1.02%
12,O=C1CC(c2nc3ccccc3n2CCC2CCCCC2)CN1c1ccccc1Cl (stereo unspecified),inactive: 23.8%
13,Cc1ccc(NC(=O)Cn2c(=O)n(CCCC(=O)NCc3ccc4c(c3)OCO4)c(=O)c3ccccc32)cc1,inactive: 10.8%
14,Cc1ccc2onc(CC(=O)N3CCN(c4ccc(Cl)cc4)CC3)c2c1,inactive: 4.25%
15,CCN(c1ccc(Cl)cc1)S(=O)(=O)c1nnc(NC(=O)c2ccco2)s1,inactive: -0.0378%
16,COc1ccc(OC)c(CNC(=O)c2ccc(Sc3ccc(Cl)cc3)c(NC(C)=O)c2)c1,inactive: 8.92%
17,CCOC(=O)c1cc2c(=O)n3ccccc3nc2n(CCCOC)c1=NC(=O)c1c(-c2ccccc2Cl)noc1C,inactive: -15.2%
18,Cc1ccc(-n2ncc(C(=O)N3CCN(C4CCCCC4)CC3)c2C2CCN(C(=O)OC(C)(C)C)CC2)cc1C,inactive: -27.1%
19,CN(C(=O)Cn1c(=O)n(CCC(=O)NCc2ccc3c(c2)OCO3)c(=O)c2sccc21)c1ccccc1,inactive: -1.39%
20,Cc1ccc(NC(=O)c2sc3nc4n(c(=O)c3c2C)CCCCC4)c(Br)c1,inactive: 0.897%
21,Cc1nc2nc(C)c(NS(=O)(=O)c3ccc(F)cc3)c(=O)n2[nH]1,inactive: 6.1%
22,O=C(Cn1cnc(S(=O)(=O)N2CCCC2)c1)Nc1cccc(F)c1,inactive: 2.07%
23,CCN(CC)CCCNC(=O)CSc1nc2nc(C)c(Cc3ccccc3C)c(C)n2n1,inactive: 5.48%
24,COc1ccc(NC(=O)Cn2nc(SC)c(S(=O)(=O)c3ccc(C)cc3)c2N)cc1OC,inactive: 24.1%

row,SMILES,"activity change, negative = cytotoxicity"
1,Fc1ccccc1N1CCN(c2ncnc3c2nc2n3CCCCC2)CC1,inactive: 12.6%
2,CCC(=O)N1CCc2cc(Br)cc(S(=O)(=O)CCC(=O)N(C)c3cccc(C)c3)c21,inactive: 6.26%
3,CCOc1ccc(NC(=O)CC2C(=O)N(c3ccc(F)cc3)C(=O)N2CCc2sccc2C)cc1 (stereo unspecified),inactive: -22%
4,COc1ccc(CNc2nc3c(-c4ccc(C)cc4)nnn3c3ccccc23)cc1,inactive: 7.43%
5,COc1ccc(-n2nc(C(=O)NCCCOC(C)C)c3c4ccccc4n(C)c3c2=O)cc1,inactive: -13.8%
6,O=C(O)c1ccc2oc(=O)n(Cc3ccccc3)c2c1,inactive: 4.89%
7,O=C(Nc1c(Cl)cccc1Cl)c1cccc2c1C(=O)N(C1CCCCC1)C2,inactive: 4.98%
8,CC(C)Oc1ccc(CNC(=O)c2ccc(CS(=O)Cc3ccccc3Cl)o2)cc1 (stereo unspecified),inactive: -15.4%
9,COc1ccc(OC)c(NC(=O)c2oc3c(c2C)-c2nn(Cc4ccc(Cl)cc4)cc2CC3)c1,inactive: -2.66%
10,Cc1cn2c(=O)cc(COC(=O)c3cccc(NC(=O)COc4ccccc4)c3)nc2s1,inactive: -8.18%
11,Cc1cc(C)n2nc(-c3ccc(Cl)cc3)nc2n1,inactive: 11.6%
12,Cc1ccc2c(CC(=O)N3CCN(c4cccc(Cl)c4)CC3)coc2c1C,inactive: 6.65%
13,CC(=O)Nc1ccc(NC(=O)Cn2cc3c(n2)CCCCC3)cc1,inactive: 0.436%
14,Cc1cccc(OCCSc2nc3ccc(NC(=O)COc4ccccc4C)cc3s2)c1,inactive: 3.26%
15,CCC(=O)N1CCc2cc(CNC(=O)Cc3ccc(OC)c(OC)c3)ccc21,inactive: 33.2%
16,Cc1ccccc1Cn1cnc2c(oc3ccccc32)c1=O,inactive: -18.4%
17,COc1cc(C(=O)N2CCc3c([nH]c4ccccc34)C2c2ccc(F)cc2)cc(OC)c1OC (stereo unspecified),inactive: -25.3%
18,CC1=Nc2cc(C(=O)NC3CCC(C)CC3)ccc2Sc2c(C)ccc(C)c21 (stereo unspecified),inactive: 3.86%
19,COc1ccc(-c2cn3nc(N4CCC(C(=O)NCc5cccc(Cl)c5)CC4)sc3n2)cc1,inactive: 12.3%
20,COC(=O)c1ccc(Nc2nc(-c3ccc(C)cc3)nc3ccccc23)cc1,inactive: 2.01%
21,CC(=O)N1CCc2c(sc3c2c(=O)n(Cc2ccccc2)c(=O)n3Cc2cccc(Cl)c2)C1,inactive: -13.9%
22,COc1cc(-c2noc(-c3ccc(N4CCCC4)c([N+](=O)[O-])c3)n2)cc(OC)c1OC,inactive: 3.22%
23,Cc1ccc(-n2nc(C(=O)NCc3ccc(F)cc3Cl)c3c4ccccc4n(C)c3c2=O)cc1,inactive: -2.46%
24,FC(F)(F)c1ccc2c(c1)ncc1c(-c3ccccc3)nn(-c3ccccc3)c12,inactive: 0.89%
